Consider 56 variants from the RNAGym collection of RNA variant scans (doi:10.7554/elife.90254).

B1: LINE1-mini (parent)
chain: GGCAGAGCUCAACACAGCGUGGCAAAGUGGCUGUGGCUAGACUGCC

Read counts are not given, so values of variants with three or more changes are uncertain.

In the data set the parent is B1. Briefly: self-cleavage, relative activity (ratio to wild type); higher = more cleavage; in vitro, sequencing; the parent is a self-cleaving ribozyme.
Turning to GGCAGAGCUCAACACAGUGUGGCAAAGUGGCUCUGGCUAGACUGCU [C18U G33C C46U], the self-cleavage amounted to 0.02.

In the case of GGCAGAGCUCAACACAGCAUGGAAAAGUGGCGGUGGCUAGACUGCC [G19A C23A U32G], the self-cleavage was 0.21.

Turning to GGCAGAGCUCAACACAGUGUGGCACAGUGGCUUUGGCUAGACUGCC [C18U A25C G33U], the self-cleavage amounted to 0.03. For GGCAGAGCUCAACACAGUGUGGCAAAGUUGCUGUGGCUAUGCUGCC [C18U G29U G40U A41G], the self-cleavage is 0.24. Regarding GGCAGAGCUCAACACAGUGUGGCACAGUGGUUGUGGCUAGACUGCC [C18U A25C C31U], the self-cleavage was found to be 0.05. On to GGCAGAGCUCAACACAGUGUGGCAAAGUGGCUGUAGUUAGACUGCC [C18U G35A C37U], for which the self-cleavage is 0.1.

As for GGCAGAGCUCAACACAGUGUGGCAUAGUGGCUGCGGGUAGACUACC [C18U A25U U34C C37G G44A], the self-cleavage is 0.04. GGCAGAGCUCAACACAGUGUUGCAAAGUGGCUGUUGCUAGACUGCC [C18U G21U G35U]: the self-cleavage is 0.05. Consider GGCAGAGCUCAACACAGUGUGGUGAAGUAGCUGUGGCUAGACUGCC [C18U C23U A24G G29A], for which the self-cleavage is 1. With GGCAGAGCUCAACACAGUGUCGCAAAGUGGCUGUGGCUAUACUGCC [C18U G21C G40U], the self-cleavage stood at 0.1. As for GGCAGAGCUCAACACAGCAUGGCAAGGAGGCAGUGGCUAGACUGCC [G19A A26G U28A U32A], the self-cleavage was found to be 0.02. With GGCAGAGCUCAACACAGUGUGGGAAAGUGGCUGUGGCUAGAGUGCC [C18U C23G C42G], the self-cleavage came out at 0.03. Next, GGCAGAGCUCAACACAGGGUGGCAAAUUGUCUGUGGCUAGACUGCC [C18G G27U G30U]: 2.75. As to GGCAGAGCUCAACACAGUGAGGCAAAUUGGCUAUGGCUAGACUGCC [C18U U20A G27U G33A], the self-cleavage was 0.03. GGCAGAGCUCAACACAGUGUGGUUAAGUGGCUAUGGCUAGACUGCC [C18U C23U A24U G33A]: the self-cleavage was 0.04. GGCAGAGCUCAACACAGUGUGGCAAAGUGGCUGUGGCUAGCCGGCC [C18U A41C U43G]: the self-cleavage came out at 0.05.

In the case of GGCAGAGCUCAACACAGUGUUGCAAAGUGGCUGUGGCUAGAAUGCC [C18U G21U C42A], the self-cleavage was found to be 0.06. Turning to GGCAGAGCUCAACACAGGGCGGCAAAGUGGCUGUGGCUAGACUGUC [C18G U20C C45U], the self-cleavage was determined as 0.13. Next, GGCAGAGCUCAACACAGGGUGGCAAAGUGGCUGAGGCUAUACUGCC [C18G U34A G40U]: 0; GGCAGAGCUCAACACAGUGUGGCAAAGUUGCUGUAGCUAGACUGCC [C18U G29U G35A]: 0.17; GGCAGAGCUCAACACAGGGUGGCAAAGUGGCUGUGGCAAGAAUGCC [C18G U38A C42A]: 0.08. As for GGCAGAGCUCAACACAGGGUGGCAAAGUGGCUGCAGCUAUACUGCC [C18G U34C G35A G40U], the self-cleavage was 0.04. Next, GGCAGAGCUCAACACAGCAUGGUAAGUUGGCUGUGGCUAGACUGCC [G19A C23U A26G G27U]: 0.09; GGCAGAGCUCAACACAGUGUGGCAACCUGCCUGUGGCUCGACUGCC [C18U A26C G27C G30C A39C]: 0.32; GGCAGAGCUCAACACAGGGUGGCAAAGGGGCUGUGGAUAGACUGCC [C18G U28G C37A]: 0.06. GGCAGAGCUCAACACAGGGGGGCAAAGUGGUUGUGGCUAGACUGCC [C18G U20G C31U]: the self-cleavage stood at 0.01.

In the case of GGCAGAGCUCAACACAGUGUGGCAAAGUGGCUGUAGCUAGACCGCC [C18U G35A U43C], the self-cleavage was 0.04. Take GGCAGAGCUCAACACAGUGGGGCAAAGUGGCUGUGGCUAGACUACC [C18U U20G G44A]: the self-cleavage was found to be 0.05. For GGCAGAGCUCAACACAGUGUGGCAAAGAGGGUGUUGCUAGACUGCC [C18U U28A C31G G35U], the self-cleavage amounted to 0.02.

Consider GGCAGAGCUCAACACAGUGUGGCAAAGUGACUGUGGCUAGACUUCC [C18U G30A G44U], for which the self-cleavage came to 0.09. In the case of GGCAGAGCUCAACACAGUGUGGAAAAGUGGCUAUUGCUACACUGCG [C18U C23A G33A G35U G40C C46G], the self-cleavage turned out to be 0.01. In the case of GGCAGAGCUCAACACAGUGUUGCAAACUGGCUGUGGCUAGACUCCC [C18U G21U G27C G44C], the self-cleavage was 0.15. GGCAGAGCUCAACACAGCAUGGCAAAGUGGCUGUGGCUUGAUUGCC [G19A A39U C42U]: the self-cleavage turned out to be 0.47. With GGCAGAGCUCAACACAGUGUGGCAAGGUGGCUGUGGCUACACUGCC [C18U A26G G40C], the self-cleavage is 0.03. GGCAGAGCUCAACACAGUGUGUCAAAGUUGCUGUGGCUAGACUGCC [C18U G22U G29U]: the self-cleavage stood at 2.61. As to GGCAGAGCUCAACACAGUGCGGCAAAGUGGCUGUGGCUAGACAGCC [C18U U20C U43A], the self-cleavage was 0.04. For the variant GGCAGAGCUCAACACAGUGUGUCGAAGUGGCUGUGGCUACACUGCC [C18U G22U A24G G40C], the self-cleavage turned out to be 0.01.

For the variant GGCAGAGCUCAACACAGGGUGGCAAAGUGGCUCUGGCCAGACUGCC [C18G G33C U38C], the self-cleavage was determined as 0.01. GGCAGAGCUCAACACAGUAUGGCAAAGUGGCUGUGGCUGGACUGCC [C18U G19A A39G]: the self-cleavage is 0.06. GGCAGAGCUCAACACAGUGUGGUAAAGUGGCUGUGGCUAGUCUACC [C18U C23U A41U G44A]: the self-cleavage stood at 0.06. In the case of GGCAGAGCUCAACACAGGGUGGCAAAGUGGCGGUAGCUAGACUUAC [C18G U32G G35A G44U C45A], the self-cleavage was found to be 0.02.

For the variant GGCAGAGCUCAACACAGGGAGGCAUAGUGCCUGUGGCUAGACUGCC [C18G U20A A25U G30C], the self-cleavage is 0.16. Under GGCAGAGCUCAACACAGUGUGGCAAAGUGUCUGUGGGUAGACUGCC [C18U G30U C37G] stands 0.02. GGCAGAGCUCAACACAGGGUGGCAAAGUGACUGUGGCCAGACAGCC [C18G G30A U38C U43A]: the self-cleavage came out at 0.03. GGCAGAGCUCAACACAGCAUGGCAACGUGGCUGUGGACAGACUACC [G19A A26C C37A U38C G44A]: the self-cleavage amounted to 0.07. Next, GGCAGAGCUCAACACAGCAUGGCAAAGUGGUUGUGGGGAGACUGCC [G19A C31U C37G U38G]: 0.01; GGCAGAGCUCAACACAGGGAGGAAAAGUGGCUUUGGCUAGACUGCU [C18G U20A C23A G33U C46U]: 0.01. For the variant GGCAGAGCUCAACACAGUGUGAGAAAGUGGCUGUUGCUAGACUGCC [C18U G22A C23G G35U], the self-cleavage worked out at 0.03. GGCAGAGCUCAACACAGGGUGGCAAAGUGACUGGGGCUAGACUGCC [C18G G30A U34G]: the self-cleavage turned out to be 0.11. As for GGCAGAGCUCAACACAGCAUGGCAAAGUGGCUGUGGGUAGACUUCC [G19A C37G G44U], the self-cleavage is 0.03. Next, GGCAGAGCUCAACACAGUGUGUCACAGUGGCUGUGGCUAGCCUGCC [C18U G22U A25C A41C]: 0.04; GGCAGAGCUCAACACAGUGGGGCAAAGUGGCUGUUGCUAGACCGCC [C18U U20G G35U U43C]: 0.02; GGCAGAGCUCAACACAGCAUGGGAAAGUGGCUGUGGCUAGACUACC [G19A C23G G44A]: 0.21. For the variant GGCAGAGCUCAACACAGUGUGGCAAAGUCGCUGUGGCUAAACUACC [C18U G29C G40A G44A], the self-cleavage was 0.01. Next, GGCAGAGCUCAACACAGUGUGGCAAAGUGGCUGAGGUUUGACUGCC [C18U U34A C37U A39U]: 0.03. Next, GGCAGAGCUCAACACAGUGUGGCAAAGUGGCUGUGGGUAGAUUGCC [C18U C37G C42U]: 0.02.
